Consider 5 molecules from PMC7949078.

Assay [1] concerns the target T1, Microsomal triglyceride transfer protein (MTTP), endogenous in mouse intestinal epithelial cells (mouse (endogenous in intestinal epithelial cells)) (UniProt O08601).
T1 sequence: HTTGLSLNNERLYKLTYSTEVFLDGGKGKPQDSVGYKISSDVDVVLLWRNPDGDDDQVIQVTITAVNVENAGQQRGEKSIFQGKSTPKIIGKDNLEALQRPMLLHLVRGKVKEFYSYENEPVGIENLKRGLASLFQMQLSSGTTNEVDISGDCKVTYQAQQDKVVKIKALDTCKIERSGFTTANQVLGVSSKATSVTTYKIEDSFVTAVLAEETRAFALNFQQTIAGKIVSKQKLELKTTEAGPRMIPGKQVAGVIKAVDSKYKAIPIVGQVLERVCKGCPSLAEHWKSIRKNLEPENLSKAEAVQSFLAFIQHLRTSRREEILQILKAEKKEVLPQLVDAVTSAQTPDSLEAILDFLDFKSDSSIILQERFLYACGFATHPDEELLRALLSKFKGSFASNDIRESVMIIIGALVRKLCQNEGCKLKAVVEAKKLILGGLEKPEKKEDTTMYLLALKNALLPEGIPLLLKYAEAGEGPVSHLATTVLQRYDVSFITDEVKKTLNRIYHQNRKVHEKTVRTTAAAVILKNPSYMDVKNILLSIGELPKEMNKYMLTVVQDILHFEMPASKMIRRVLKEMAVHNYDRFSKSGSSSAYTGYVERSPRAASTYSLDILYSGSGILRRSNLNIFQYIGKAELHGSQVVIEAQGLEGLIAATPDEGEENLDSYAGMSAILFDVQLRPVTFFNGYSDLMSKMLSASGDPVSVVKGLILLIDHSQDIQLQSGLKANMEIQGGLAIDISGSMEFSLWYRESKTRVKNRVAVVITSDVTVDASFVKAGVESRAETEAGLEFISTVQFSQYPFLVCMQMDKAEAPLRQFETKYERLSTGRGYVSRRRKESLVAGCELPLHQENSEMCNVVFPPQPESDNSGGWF
In words: co-IP; about 1 mg IEC lysate of control, PRAP1-/- or E85V mice in homogenization buffer (150 mM NaCl, 1 mM EDTA, 10 mM HEPES pH 7.4) immunoprecipitated with PRAP1- or MTTP-specific antibody; immunoblot for PRAP1 or MTTP; endogenous levels. For orientation: A western blot detects proteins with antibodies after separation by electrophoresis.

Another assay concerns the target T2, FLAG-tagged MTTP (UniProt O08601).
T2 sequence: T1 sequence
In words: pull-down; FLAG-MTTP immunoprecipitated from HeLa cells, held on protein-G agarose, incubated 4 h with recombinant GST-PRAP1 (wt or mutant) in buffer A (50 mM Tris-HCl pH 7.4, 150 mM NaCl) with [3H]-TG (40-80 pmole); immunoblot with FLAG or GST antibody; both purified.

In assay [2] the target is T3, Proline-rich acidic protein 1 (PRAP1), endogenous wild type in mouse intestinal epithelial cells (mouse (endogenous in intestinal epithelial cells)) (UniProt Q80XD8).
T3 sequence: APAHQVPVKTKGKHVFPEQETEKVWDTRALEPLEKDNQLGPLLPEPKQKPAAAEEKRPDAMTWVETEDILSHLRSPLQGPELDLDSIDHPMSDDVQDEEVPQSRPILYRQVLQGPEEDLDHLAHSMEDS
Briefly: co-IP; about 1 mg IEC lysate of control, PRAP1-/- or E85V mice in homogenization buffer (150 mM NaCl, 1 mM EDTA, 10 mM HEPES pH 7.4) immunoprecipitated with PRAP1- or MTTP-specific antibody; immunoblot for PRAP1 or MTTP; endogenous levels.

In assay [3] the target is T4, PRAP1 E85V mutant, endogenous in intestinal epithelial cells of E85V knock-in mice (mouse (endogenous in intestinal epithelial cells of knock-in mice)) (UniProt Q80XD8).
T4 sequence: T3 sequence with E65V
The description is as above.

Positions count from the first letter of the chain named. Names and notes keep the numbering of the source. These are yes or no findings as the source states them, for the method shown. For part of these data: In cells and extracts the contact can be indirect. Some binding calls cover weakened binding; strength is not graded here. For part of these data: Sequences can lack the tags named with a protein.

B1: Proline-rich acidic protein 1 (PRAP1), endogenous wild type in mouse intestinal epithelial cells (protein, UniProt Q80XD8 21-149)
chain: T3 sequence
Turning to B1, in assay [1], the binding entry is listed as “binds”.

B2: GST-PRAP1△N20 (GST-tagged recombinant PRAP1 lacking the N-terminal 20-aa signal peptide) (domain or fragment, UniProt Q80XD8 21-149)
chain: T3 sequence
Turning to B2, the binding result with FLAG-tagged MTTP is recorded as “binds”.

B3: PRAP1 E85V mutant, endogenous in intestinal epithelial cells of E85V knock-in mice (protein, UniProt Q80XD8 21-149)
chain: T3 sequence with E65V
On to B3, for which the binding result in assay [1] is reported as “no binding”.

B4: GST-E118-119V (GST-PRAP1△N20 with the E118-119V mutation) (domain or fragment, UniProt Q80XD8 21-149)
chain: T3 sequence with E98V, E99V
In the case of B4, in the assay with FLAG-tagged MTTP, the binding entry is listed as “binds”.

B5: Microsomal triglyceride transfer protein (MTTP), endogenous in mouse intestinal epithelial cells (protein, UniProt O08601 22-894)
chain: T1 sequence
For B5, the binding entry in assay [2] was “binds”; in assay [3], “no binding”.
